Experimental data as given in paper PMC4336329 (PLoS ONE, 2015).
The whole screen tested about 310,000 compounds, of which about 14,000 (4.5%) showed an effect of 50% or more. The effect is printed as a negative number. The list shows a part of the results.

Target: human ether-à-go-go-related gene (hERG) potassium channel (human, UniProt Q12809)
Experiment: primary screen, population patch clamp on CHO cells stably expressing hERG
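Further: peak tail current of the secondary pulse compared with the same well before compound.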

Sequence of human ether-à-go-go-related gene (hERG) potassium channel (Q12809 whole entry, looked up): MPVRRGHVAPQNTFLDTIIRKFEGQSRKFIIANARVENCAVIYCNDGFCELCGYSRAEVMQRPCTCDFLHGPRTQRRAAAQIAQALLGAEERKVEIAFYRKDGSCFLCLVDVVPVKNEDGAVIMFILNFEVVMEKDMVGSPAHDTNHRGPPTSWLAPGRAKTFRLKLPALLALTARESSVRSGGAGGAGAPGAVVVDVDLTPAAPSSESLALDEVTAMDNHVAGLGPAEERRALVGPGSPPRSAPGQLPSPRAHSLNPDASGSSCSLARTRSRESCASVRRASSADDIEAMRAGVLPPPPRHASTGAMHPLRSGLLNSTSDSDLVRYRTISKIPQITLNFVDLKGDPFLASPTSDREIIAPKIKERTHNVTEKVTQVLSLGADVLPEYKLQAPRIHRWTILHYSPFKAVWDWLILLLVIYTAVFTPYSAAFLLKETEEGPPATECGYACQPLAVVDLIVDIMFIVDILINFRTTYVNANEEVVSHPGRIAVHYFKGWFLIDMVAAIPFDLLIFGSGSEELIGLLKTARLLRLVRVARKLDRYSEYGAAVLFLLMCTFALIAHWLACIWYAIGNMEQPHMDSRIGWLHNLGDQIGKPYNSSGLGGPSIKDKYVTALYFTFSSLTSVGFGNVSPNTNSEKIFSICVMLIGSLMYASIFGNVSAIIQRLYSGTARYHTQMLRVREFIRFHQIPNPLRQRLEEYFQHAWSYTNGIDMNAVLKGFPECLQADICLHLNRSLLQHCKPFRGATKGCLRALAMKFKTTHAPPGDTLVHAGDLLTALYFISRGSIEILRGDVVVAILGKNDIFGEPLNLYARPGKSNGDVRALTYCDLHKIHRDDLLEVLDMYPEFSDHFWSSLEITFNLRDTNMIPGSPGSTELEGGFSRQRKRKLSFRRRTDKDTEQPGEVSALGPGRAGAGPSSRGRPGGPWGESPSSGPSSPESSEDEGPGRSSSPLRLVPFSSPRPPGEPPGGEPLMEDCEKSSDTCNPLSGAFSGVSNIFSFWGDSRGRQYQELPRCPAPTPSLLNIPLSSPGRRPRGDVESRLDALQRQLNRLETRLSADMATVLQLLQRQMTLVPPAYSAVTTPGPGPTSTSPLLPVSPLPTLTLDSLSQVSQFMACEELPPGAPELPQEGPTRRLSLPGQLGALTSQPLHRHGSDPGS

Compound | hERG current change (%, negative = inhibition) at 10uM [%]
CCOc1cc2c(cc1/C=C/C(=O)O)OC(C)C2 (stereo not shown) | -0.48
CCn1nnnc1SCC(=O)N1CCc2ccccc21 | 3.69
CN(C)c1ccc(CNc2ccc3c(c2)ncn3C)cc1 | -4.51
COc1ccc(CN(C)C(=O)c2cc(-c3ccccc3)nc3ccc(C)cc23)c(OC)c1OC | -3.99
O=C(O)CN1C(=O)CC(Cc2ccc(Cl)cc2)C1=O (stereo not shown) | -1.01
Cc1coc(NC(=O)CSc2nc(-c3ccncc3)cc(C(F)(F)F)c2C#N)n1 | -0.488
O=C(Nc1ccccc1)Nc1nc2ccccc2s1 | 3.9
COc1cc(CN(C(=O)c2cc3ccccc3oc2=O)C2CCS(=O)(=O)C2)cc(OC)c1OC (stereo not shown) | -18.8
CCOc1cc(/C=C2\C(=O)ON=C2C)ccc1OCc1ccccc1 | 13.2
Nc1nnc(-c2cn(-c3ccccc3)nc2-c2ccccc2)o1 | -17.1
Cc1cccc(-n2c(SCC(=O)NCc3ccco3)nnc2-c2ccco2)c1 | -75.7
Cc1ccc2[nH]c3c(c2c1)CCNC3=O | 4.86
O=C(CSc1nc2ccccc2c(=O)n1-c1ccc(OC(F)F)cc1)NCc1cccs1 | -9.5
O=C(CCN1C(=O)c2ccccc2C1=O)Oc1ccc2ccccc2c1 | 3.5
O=C(Cc1ncc(C(F)(F)F)cc1Cl)NCCc1ccccc1 | 10.2
C#Cc1ccc([C@H]2C=C(C(=O)OCC=C)O[C@@H](OCCCCO)C2)cc1 | -17.1
CCOC(=O)C1CCCN(S(=O)(=O)c2ccc3c(c2)C(C)(C)C(=O)N3C)C1 (stereo not shown) | 7.18
O=C(COC(=O)c1ccc(=O)[nH]c1)Nc1cccc(S(=O)(=O)N2CCOCC2)c1 | 18.9
CN1CCN(c2ccc(CNC(=O)c3ccc4c(c3)OCCO4)cc2)CC1 | -3.43
Cc1cc(C)nc(N(C#N)CC(=O)N(c2ccccc2)C(C)C)n1 | 7.15
CC(C)(C)c1ccc(C(CC(=O)O)NC(=O)CSc2ccccc2)cc1 (stereo not shown) | 26.4
N#C/C(=C\N1CCCCC1)S(=O)(=O)c1ccc(Cl)cc1 | 15.6
OCCN(CCCn1c(C(F)(F)F)nc2ccccc21)c1nc(CN2CCCCC2)cs1 | -19
O=C(NCCCn1ccnc1)/C(=C\c1cccnc1)NC(=O)c1ccccc1Br | 5.24
Cn1cccc1/C=C1\CC(C(C)(C)C)C/C(=C\c2cccn2C)C1=O (stereo not shown) | -10.4
COc1cc2c(cc1OC)C(c1cc3cccc(C)c3[nH]c1=O)N(C(=O)c1ccco1)CC2 (stereo not shown) | 0.325
Cc1cc(C)nc(Nc2ccc(N3CCCC3)cc2)n1 | -5.79
Cc1ccc(C(=O)NCCc2ccc(S(N)(=O)=O)cc2)o1 | 16.1

Compound | hERG current change (%, negative = inhibition) at 10uM [%]
Cl.Fc1ccc2c(c1)nnn2C1CCN(Cc2nnnn2CCc2ccccc2)CC1 | -61.3
CC(C)CNC(=O)CSc1nnc(CN2CCCCCC2=O)n1-c1ccccn1 | -5.7
CC(C)NS(=O)(=O)c1ccc(NC(=S)NC(=O)c2cccc([N+](=O)[O-])c2)cc1 | -46.4
CN1CCN(S(=O)(=O)c2ccc(N3CCN(c4ccc(O)cc4)CC3)c([N+](=O)[O-])c2)CC1 | -24.4
CN(Cc1nnc(SCC(=O)NCCc2ccccc2)n1C)S(=O)(=O)c1ccccc1 | -21.6
O=S(=O)(Nc1nc2ccccc2[nH]1)c1ccc(Cl)cc1 | -16
O=S(=O)(CCSc1nc2ccccc2s1)c1nc2ccccc2s1 | -0.246
CC(=O)c1cccc(S(=O)(=O)Nc2cccnc2)c1 | 11.9
Cc1cccc(Nc2nnc(-c3ccc(C(=O)N4C[C@H]5C[C@H](C4)c4cccc(=O)n4C5)cc3)c3ccccc23)c1 | -10.2
CCOCCc1nnc(NC(=O)c2cc(OC)c(OC)c(OC)c2)s1 | 5.98
COc1ccc2c(c1OC)C(=O)OC2Nc1ccccn1 (stereo not shown) | 3.26
CC(C)(C)c1ccc(C(=O)Nc2ccc(C=C(C#N)C#N)cc2)cc1 | 8.87
CCCn1c(C)cc(C(=O)COc2ncnc3sccc23)c1C | -1.31
COc1ccc(C(=O)N/N=C\c2coc3ccc(Cl)cc3c2=O)cc1 | 6.71
O=C(COC(=O)c1cc([N+](=O)[O-])ccc1N1CCOCC1)Nc1ccc(Cl)cc1 | -28.2
CCCCCCC(C)NC(=S)Nc1cc(S(=O)(=O)N(C)C)ccc1C (stereo not shown) | -2.15
Cc1ccc(C(=O)Nc2ccccc2NC(=O)c2ccc(C)o2)o1 | -11.7
Cc1cccc(C(=O)NC(=S)NNC(=O)c2ccc(Cl)cc2)c1 | 23.5
O=C(COC(=O)c1ccccc1NC(=O)c1ccccc1)c1cccc([N+](=O)[O-])c1 | -1.2
O=C(O)C1(c2ccccc2)CCN(S(=O)(=O)c2ccccc2)CC1 | 6.17
CC(C)=CCN1CCN(Cc2cn[nH]c2C2CCCCC2)CC1CCO (stereo not shown) | 0.0652
CCc1sc(C(=O)N2CCN(CC(=O)Nc3cccc(F)c3)CC2)cc1C | -65
COC(=O)C1=CNC=C(C(=O)OC)C1c1ccc(Cl)cc1 | -8.91
CN(Cc1ccccc1NS(=O)(=O)c1ccc2ccccc2c1)C1CCCCC1.Cl | 7.73
O=C(c1ccc(Cl)cc1)C1CCN(C(=O)c2ccc(F)cc2)CC1 | -34.7
Cc1cc(C)cc(-n2ccn(CC(=O)NCCc3ccccc3)c(=O)c2=O)c1 | 18.1
COc1ccc(CNC(=O)CSc2nnnn2-c2ccccc2)cc1 | -38.6
